Data taken from publication PMC12820563, “FoxP3 forms a head-to-head dimer in vivo and stabilizes its multimerization on adjacent microsatellites”.
The list shows a part of the results.

Each sequence was assayed against T1, MBP-FoxP1dN (Mus musculus, UniProt P58462 326-579) (assay: PD-seq (MBP pull-down with sequencing); 20 mM Tris-HCl pH 7.5, 100 mM NaCl, 1.5 mM MgCl2, 0.4 uM protein, 0.1 uM dsDNA library, 30 min, room temperature, amylose pull-down; high values mean tight binding). Details: protein: recombinant; tags: His6-MBP; chain copies: 2; dsDNA, one strand shown.
T1 sequence: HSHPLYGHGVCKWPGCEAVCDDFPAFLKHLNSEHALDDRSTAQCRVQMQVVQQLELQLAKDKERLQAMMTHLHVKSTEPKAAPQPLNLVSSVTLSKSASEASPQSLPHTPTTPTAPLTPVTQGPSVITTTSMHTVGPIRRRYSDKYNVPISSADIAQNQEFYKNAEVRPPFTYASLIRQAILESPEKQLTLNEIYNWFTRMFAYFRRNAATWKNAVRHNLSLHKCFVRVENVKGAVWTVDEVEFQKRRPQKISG
Method in brief: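 In Tris pH 7.5 buffer with NaCl and MgCl2, 0.4 µM His6-MBP-tagged mouse FoxP3 or FoxP1 fragment lacking the N-terminus, from E. coli, met 0.1 µM Klenow-filled double-stranded degenerate DNA library for 30 min at room temperature. Three washes on amylose resin followed capture of the complexes, then proteinase K release of DNA, PCR barcoding and Illumina sequencing. Binding is taken as pooled-replicate reads-per-million enrichment of pull-down relative to input.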

Sequence | binding signal
GATGATTGTTCTCCCAGCTGATGAATTCAGCCTTTCGAGTAAACAAATTTTCCTAATCTTTCTGTTCAAGCGCCATCTAC | 0.82 RPM ratio (pull-down/input)
GATGATTGTTCTCCCAGCTGATGAATTGGAACCCTCGAGTAAACAAATTTTCCTAATCTTTCTGTTCAAGCGCCATCTAC | 0.758 RPM ratio (pull-down/input)
GATGATTGTTCTCCCAGCTGATGAATTGCAAGCATCGAGTAAACAAATTTTCCTAATCTTTCTGTTCAAGCGCCATCTAC | 1.33 RPM ratio (pull-down/input)
GATGATTGTTCTCCCAGCTGATGAATTGATCTCTTCGAGTAAACAAATTTTCCTAATCTTTCTGTTCAAGCGCCATCTAC | 0.926 RPM ratio (pull-down/input)
GATGATTGTTCTCCCAGCTGATGAATTAGGTTTGTCGAGTAAACAAATTTTCCTAATCTTTCTGTTCAAGCGCCATCTAC | 1.06 RPM ratio (pull-down/input)
GATGATTGTTCTCCCAGCTGATGAATTTGGACCGTCGAGTAAACAAATTTTCCTAATCTTTCTGTTCAAGCGCCATCTAC | 0.838 RPM ratio (pull-down/input)
GATGATTGTTCTCCCAGCTGATGAATTACCCCCATCGAGTAAACAAATTTTCCTAATCTTTCTGTTCAAGCGCCATCTAC | 1.01 RPM ratio (pull-down/input)
GATGATTGTTCTCCCAGCTGATGAATTTGCTGTTTCGAGTAAACAAATTTTCCTAATCTTTCTGTTCAAGCGCCATCTAC | 1.33 RPM ratio (pull-down/input)
GATGATTGTTCTCCCAGCTGATGAATTATCCCATTCGAGTAAACAAATTTTCCTAATCTTTCTGTTCAAGCGCCATCTAC | 0.957 RPM ratio (pull-down/input)
GATGATTGTTCTCCCAGCTGATGAATTGCTTGACTCGAGTAAACAAATTTTCCTAATCTTTCTGTTCAAGCGCCATCTAC | 0.968 RPM ratio (pull-down/input)
GATGATTGTTCTCCCAGCTGATGAATTCAGGGCGTCGAGTAAACAAATTTTCCTAATCTTTCTGTTCAAGCGCCATCTAC | 0.838 RPM ratio (pull-down/input)
GATGATTGTTCTCCCAGCTGATGAATTTTAATACTCGAGTAAACAAATTTTCCTAATCTTTCTGTTCAAGCGCCATCTAC | 0.974 RPM ratio (pull-down/input)
GATGATTGTTCTCCCAGCTGATGAATTGGACTCTTCGAGTAAACAAATTTTCCTAATCTTTCTGTTCAAGCGCCATCTAC | 0.885 RPM ratio (pull-down/input)
GATGATTGTTCTCCCAGCTGATGAATTGAAAGATTCGAGTAAACAAATTTTCCTAATCTTTCTGTTCAAGCGCCATCTAC | 0.861 RPM ratio (pull-down/input)
GATGATTGTTCTCCCAGCTGATGAATTAGACAGATCGAGTAAACAAATTTTCCTAATCTTTCTGTTCAAGCGCCATCTAC | 0.93 RPM ratio (pull-down/input)
GATGATTGTTCTCCCAGCTGATGAATTGCCGCGCTCGAGTAAACAAATTTTCCTAATCTTTCTGTTCAAGCGCCATCTAC | 0.893 RPM ratio (pull-down/input)

Sequence | binding signal
GATGATTGTTCTCCCAGCTGATGAATTCATGACCTCGAGTAAACAAATTTTCCTAATCTTTCTGTTCAAGCGCCATCTAC | 0.835 RPM ratio (pull-down/input)
GATGATTGTTCTCCCAGCTGATGAATTCCGAGAGTCGAGTAAACAAATTTTCCTAATCTTTCTGTTCAAGCGCCATCTAC | 0.749 RPM ratio (pull-down/input)
GATGATTGTTCTCCCAGCTGATGAATTGTTGGAATCGAGTAAACAAATTTTCCTAATCTTTCTGTTCAAGCGCCATCTAC | 1.12 RPM ratio (pull-down/input)
GATGATTGTTCTCCCAGCTGATGAATTCATTCGCTCGAGTAAACAAATTTTCCTAATCTTTCTGTTCAAGCGCCATCTAC | 0.948 RPM ratio (pull-down/input)
GATGATTGTTCTCCCAGCTGATGAATTGTCGGCTTCGAGTAAACAAATTTTCCTAATCTTTCTGTTCAAGCGCCATCTAC | 0.881 RPM ratio (pull-down/input)
GATGATTGTTCTCCCAGCTGATGAATTGCGGCGGTCGAGTAAACAAATTTTCCTAATCTTTCTGTTCAAGCGCCATCTAC | 0.904 RPM ratio (pull-down/input)
GATGATTGTTCTCCCAGCTGATGAATTGTTACTTTCGAGTAAACAAATTTTCCTAATCTTTCTGTTCAAGCGCCATCTAC | 1.52 RPM ratio (pull-down/input)
GATGATTGTTCTCCCAGCTGATGAATTCGCCCAGTCGAGTAAACAAATTTTCCTAATCTTTCTGTTCAAGCGCCATCTAC | 0.817 RPM ratio (pull-down/input)
GATGATTGTTCTCCCAGCTGATGAATTAAGATGCTCGAGTAAACAAATTTTCCTAATCTTTCTGTTCAAGCGCCATCTAC | 1.32 RPM ratio (pull-down/input)
GATGATTGTTCTCCCAGCTGATGAATTGCGTCGGTCGAGTAAACAAATTTTCCTAATCTTTCTGTTCAAGCGCCATCTAC | 0.962 RPM ratio (pull-down/input)
GATGATTGTTCTCCCAGCTGATGAATTTCGTAGTTCGAGTAAACAAATTTTCCTAATCTTTCTGTTCAAGCGCCATCTAC | 0.868 RPM ratio (pull-down/input)
GATGATTGTTCTCCCAGCTGATGAATTCCAACGTTCGAGTAAACAAATTTTCCTAATCTTTCTGTTCAAGCGCCATCTAC | 0.849 RPM ratio (pull-down/input)
GATGATTGTTCTCCCAGCTGATGAATTATTTGTTTCGAGTAAACAAATTTTCCTAATCTTTCTGTTCAAGCGCCATCTAC | 2.21 RPM ratio (pull-down/input)
GATGATTGTTCTCCCAGCTGATGAATTATGTCAATCGAGTAAACAAATTTTCCTAATCTTTCTGTTCAAGCGCCATCTAC | 1.25 RPM ratio (pull-down/input)
GATGATTGTTCTCCCAGCTGATGAATTTAAGTACTCGAGTAAACAAATTTTCCTAATCTTTCTGTTCAAGCGCCATCTAC | 0.985 RPM ratio (pull-down/input)
GATGATTGTTCTCCCAGCTGATGAATTCCAACCATCGAGTAAACAAATTTTCCTAATCTTTCTGTTCAAGCGCCATCTAC | 0.882 RPM ratio (pull-down/input)
